Source: publication PMC9911399, “Two distinct binding modes provide the RNA-binding protein RbFox with extraordinary sequence specificity”
Substitutions are numbered along the chain they refer to; changes in the protein carry UniProt numbers. This is one part of the list.

T1: RBFOX1 RRM RbFoxmut (Fox-RRM*) (Homo sapiens, UniProt Q9NWB1 109-208, R118D;E147R;N151S;E152T)
T1 sequence: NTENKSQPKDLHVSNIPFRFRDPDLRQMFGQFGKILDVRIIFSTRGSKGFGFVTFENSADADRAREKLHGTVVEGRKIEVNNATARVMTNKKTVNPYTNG

B1: GACUAGU (DNA:RNA)
RNA: GGGAGACCGGAAUUCAGAUUGUCCGACUAGUUUAAAUCCCGUCGUAGCCACCA
DNA 1: CAATCTGAATTCCGGTCTCCC
DNA 2: TGGTGGCTACGACGGGATT
B2: AGUGGUU (DNA:RNA)
RNA: B1 RNA with G25A, A26G, C27U, U28G, A29G, G30U
DNA 1: CAATCTGAATTCCGGTCTCCC
DNA 2: TGGTGGCTACGACGGGATT
B3: AAAGUCG (DNA:RNA)
RNA: B1 RNA with G25A, C27A, U28G, A29U, G30C, U31G
DNA 1: CAATCTGAATTCCGGTCTCCC
DNA 2: TGGTGGCTACGACGGGATT
B4: AUCCGAC (DNA:RNA)
RNA: B1 RNA with G25A, A26U, U28C, A29G, G30A, U31C
DNA 1: CAATCTGAATTCCGGTCTCCC
DNA 2: TGGTGGCTACGACGGGATT
B5: GGAACUG (DNA:RNA)
RNA: B1 RNA with A26G, C27A, U28A, A29C, G30U, U31G
DNA 1: CAATCTGAATTCCGGTCTCCC
DNA 2: TGGTGGCTACGACGGGATT
B6: GAAACCU (DNA:RNA)
RNA: B1 RNA with C27A, U28A, A29C, G30C
DNA 1: CAATCTGAATTCCGGTCTCCC
DNA 2: TGGTGGCTACGACGGGATT
B7: UAGCAGA (DNA:RNA)
RNA: B1 RNA with G25U, C27G, U28C, U31A
DNA 1: CAATCTGAATTCCGGTCTCCC
DNA 2: TGGTGGCTACGACGGGATT
B8: GGAUUGC (DNA:RNA)
RNA: B1 RNA with A26G, C27A, A29U, U31C
DNA 1: CAATCTGAATTCCGGTCTCCC
DNA 2: TGGTGGCTACGACGGGATT
B9: UCGCAGG (DNA:RNA)
RNA: B1 RNA with G25U, A26C, C27G, U28C, U31G
DNA 1: CAATCTGAATTCCGGTCTCCC
DNA 2: TGGTGGCTACGACGGGATT
B10: AUGACAG (DNA:RNA)
RNA: GGGAGACCGGAAUUCAGAUUGUCCAUGACAGUUAAAUCCCGUCGUAGCCACCA
DNA 1: CAATCTGAATTCCGGTCTCCC
DNA 2: TGGTGGCTACGACGGGATT
B11: AAAUGCC (DNA:RNA)
RNA: B1 RNA with G25A, C27A, A29G, G30C, U31C
DNA 1: CAATCTGAATTCCGGTCTCCC
DNA 2: TGGTGGCTACGACGGGATT
B12: UAUCAGA (DNA:RNA)
RNA: B1 RNA with G25U, C27U, U28C, U31A
DNA 1: CAATCTGAATTCCGGTCTCCC
DNA 2: TGGTGGCTACGACGGGATT
B13: CUCAUAC (DNA:RNA)
RNA: B10 RNA with A25C, G27C, C29U, G31C
DNA 1: CAATCTGAATTCCGGTCTCCC
DNA 2: TGGTGGCTACGACGGGATT
B14: AAACAGA (DNA:RNA)
RNA: B1 RNA with G25A, C27A, U28C, U31A
DNA 1: CAATCTGAATTCCGGTCTCCC
DNA 2: TGGTGGCTACGACGGGATT
B15: GUCUUGU (DNA:RNA)
RNA: B1 RNA with A26U, A29U
DNA 1: CAATCTGAATTCCGGTCTCCC
DNA 2: TGGTGGCTACGACGGGATT
B16: AUCUGCG (DNA:RNA)
RNA: B10 RNA with G27C, A28U, C29G, A30C
DNA 1: CAATCTGAATTCCGGTCTCCC
DNA 2: TGGTGGCTACGACGGGATT
B17: UGCAGAA (DNA:RNA)
RNA: B10 RNA with A25U, U26G, G27C, C29G, G31A
DNA 1: CAATCTGAATTCCGGTCTCCC
DNA 2: TGGTGGCTACGACGGGATT
B18: AGAGAGA (DNA:RNA)
RNA: B1 RNA with G25A, A26G, C27A, U28G, U31A
DNA 1: CAATCTGAATTCCGGTCTCCC
DNA 2: TGGTGGCTACGACGGGATT
B19: GCUCCUA (DNA:RNA)
RNA: B10 RNA with A25G, U26C, G27U, A28C, A30U, G31A
DNA 1: CAATCTGAATTCCGGTCTCCC
DNA 2: TGGTGGCTACGACGGGATT
B20: AAUCCCG (DNA:RNA)
RNA: B10 RNA with U26A, G27U, A28C, A30C
DNA 1: CAATCTGAATTCCGGTCTCCC
DNA 2: TGGTGGCTACGACGGGATT

biological target: T1, RBFOX1 RRM RbFoxmut (Fox-RRM*); assay: EMSA; HiTS-Eq, 1 nM pool, 10 min; buffer printed only for the single-RNA assays: 10 mM Tris pH 7.5, 150 mM NaCl, 3.4 mM EDTA, 0.001% NP-40, 30 C; conditions: tags: His6 N-terminal (pET28a); label: 5' 32P
How it was run: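 A pool of RNA with 7 randomized nucleotides, 5′-radiolabelled and with DNA-annealed flanks, was equilibrated at 1 nM for 10 min in 50 µL with purified RbFox RRM, wild type or mutant, across increasing protein concentrations. Free RNA was separated by 8% native PAGE, excised, reverse-transcribed, barcoded by PCR and sequenced. Relative association constants were obtained from read-count changes of each RNA species versus the control reaction and normalised to the cognate motif.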

| Binder | binding signal |
| --- | --- |
| B1 | 0.11 KA relative to UGCAUGU |
| B2 | 0.117 KA relative to UGCAUGU |
| B3 | 0.0853 KA relative to UGCAUGU |
| B4 | 0.127 KA relative to UGCAUGU |
| B5 | 0.101 KA relative to UGCAUGU |
| B6 | 0.0468 KA relative to UGCAUGU |
| B7 | 0.11 KA relative to UGCAUGU |
| B8 | 0.174 KA relative to UGCAUGU |
| B9 | 0.133 KA relative to UGCAUGU |
| B10 | 0.0683 KA relative to UGCAUGU |
| B11 | 0.127 KA relative to UGCAUGU |
| B12 | 0.0548 KA relative to UGCAUGU |
| B13 | 0.112 KA relative to UGCAUGU |
| B14 | 0.0664 KA relative to UGCAUGU |
| B15 | 0.639 KA relative to UGCAUGU |
| B16 | 0.116 KA relative to UGCAUGU |
| B17 | 0.112 KA relative to UGCAUGU |
| B18 | 0.111 KA relative to UGCAUGU |
| B19 | 0.0568 KA relative to UGCAUGU |
| B20 | 0.0642 KA relative to UGCAUGU |
